# According to publication PMC4336329 (PLoS ONE, 2015):
# Among all 310,000 compounds or so, about 14,000 (4.5%) showed an effect of 50% or more. Effects have a minus sign here. The list shows a part of the results.
# Target: human ether-à-go-go-related gene (hERG) potassium channel (human, UniProt Q12809)
# Experiment: primary screen, population patch clamp on CHO cells stably expressing hERG
# 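Further: peak tail current of the secondary pulse compared with the same well before compound.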
# human ether-à-go-go-related gene (hERG) potassium channel, sequence (Q12809 whole entry, looked up): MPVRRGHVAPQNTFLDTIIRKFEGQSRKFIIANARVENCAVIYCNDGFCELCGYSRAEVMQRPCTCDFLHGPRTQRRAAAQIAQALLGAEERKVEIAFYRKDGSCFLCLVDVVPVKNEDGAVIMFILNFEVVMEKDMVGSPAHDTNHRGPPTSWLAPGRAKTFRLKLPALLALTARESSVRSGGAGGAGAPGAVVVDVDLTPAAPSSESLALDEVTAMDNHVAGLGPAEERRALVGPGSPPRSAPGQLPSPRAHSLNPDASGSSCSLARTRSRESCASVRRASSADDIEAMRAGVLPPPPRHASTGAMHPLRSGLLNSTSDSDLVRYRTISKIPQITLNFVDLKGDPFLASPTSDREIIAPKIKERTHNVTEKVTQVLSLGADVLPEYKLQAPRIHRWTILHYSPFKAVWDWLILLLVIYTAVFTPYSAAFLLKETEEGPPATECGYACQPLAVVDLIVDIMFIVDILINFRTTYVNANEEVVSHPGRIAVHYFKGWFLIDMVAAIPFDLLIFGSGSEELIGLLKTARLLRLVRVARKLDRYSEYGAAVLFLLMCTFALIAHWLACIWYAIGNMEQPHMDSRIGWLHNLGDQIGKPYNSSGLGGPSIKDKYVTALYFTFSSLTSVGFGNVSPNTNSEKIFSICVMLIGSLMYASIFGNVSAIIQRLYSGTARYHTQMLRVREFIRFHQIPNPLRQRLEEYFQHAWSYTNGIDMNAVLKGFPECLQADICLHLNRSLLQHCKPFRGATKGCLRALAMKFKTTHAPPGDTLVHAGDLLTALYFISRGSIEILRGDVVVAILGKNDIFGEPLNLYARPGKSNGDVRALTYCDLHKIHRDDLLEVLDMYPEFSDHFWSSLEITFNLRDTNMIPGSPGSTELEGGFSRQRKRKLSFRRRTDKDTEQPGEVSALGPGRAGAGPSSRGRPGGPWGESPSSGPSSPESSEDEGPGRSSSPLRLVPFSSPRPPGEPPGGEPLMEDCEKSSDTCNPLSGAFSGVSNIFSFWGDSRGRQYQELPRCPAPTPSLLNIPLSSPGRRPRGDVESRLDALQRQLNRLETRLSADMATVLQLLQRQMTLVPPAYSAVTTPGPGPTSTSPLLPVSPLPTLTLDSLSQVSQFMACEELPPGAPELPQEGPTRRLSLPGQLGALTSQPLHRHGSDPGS
row,SMILES,"hERG current change (%, negative = inhibition) at 10uM [%]"
1,Nc1c(C(=O)Nc2ccc(F)cc2)sc2nc(-c3ccco3)ccc12,-9.67
2,Cc1cc(C(=O)NNC(=O)Cc2ccc(Cl)cc2)c(C)o1,-12.5
3,CCc1ccc(C2CC(c3cccc(Cl)c3)n3nc(N)nc3N2)cc1 (centres unmarked),-8.81
4,C=CCn1c(=S)[nH]c2cc(C(=O)NCCc3ccc(S(N)(=O)=O)cc3)ccc2c1=O,-0.634
5,Cc1scc(C(=O)N/N=C/c2ccsc2)c1C,1.93
6,CCOC(=O)N1CCN(C(=O)COc2cc(=O)n(CC)c3ccccc23)CC1,-17
7,O=C(Cn1cc([N+](=O)[O-])cn1)NCc1ccccc1Cl,6.14
8,O=C(C1CCCN1S(=O)(=O)c1cccc2nsnc12)N1CCN(c2ccc(F)cc2)CC1 (centres unmarked),-69.3
9,Cc1cc(NC(=O)COC(=O)CC2CCCC2)c([N+](=O)[O-])cc1C,9.34
10,CCOc1ccc(C(=O)NCC2(c3ccccc3)CCOCC2)cc1,10.8
11,COc1cc(CN2CCCC(C(=O)c3ccccc3SC)C2)cc(OC)c1 (centres unmarked),-74.4
12,CCOC(=O)CC1C(=O)NCCN1C(=O)c1ccc(Cl)cc1Cl (centres unmarked),0.912
13,COc1ccc(S(=O)(=O)N2CCN(c3cc(-c4ccccc4)nc4ncnn34)CC2)cc1,-53.3
14,Cc1cc(=O)n2nc(N3CCC(C(=O)N4CCN(Cc5ccccc5)CC4)CC3)sc2n1,-19.3
15,c1ccc(-c2csc(N3CCc4ccccc4C3)n2)cc1,3.84
16,O=[N+]([O-])c1ccc(O)c(C(C#Cc2ccccc2)N2CCOCC2)c1 (centres unmarked),-10.1
17,Cc1csc(NC(=O)Cc2ccc(Cl)cc2)n1,-2.32
18,Cc1ccc(N(C)S(=O)(=O)c2cccc(C(=O)NC3=NCCS3)c2)cc1,-7.76
19,C=CCn1c(SCC(=O)c2ccc(F)cc2)nnc1-c1ccc2c(c1)OCO2,-30.4

row,SMILES,"hERG current change (%, negative = inhibition) at 10uM [%]"
1,C=CCn1c(O)c(N=NC(=O)CNC(=O)/C=C/c2ccc(OC)cc2)c2ccccc21,-15.7
2,O=C(O)c1ccc[nH]c1=S,10.3
3,CCN(C(=O)COC(=O)/C=C/c1nc2ccccc2s1)C1CCS(=O)(=O)C1 (centres unmarked),7.73
4,Cc1cc(NC(=O)CN2C(=O)CCSc3ccccc32)no1,10.1
5,O=C(O)CSC(=S)N1CCCC1,-1.47
6,Cc1cccc(Nc2nc(N)nc(CCl)n2)c1,-0.698
7,Cc1ncc([N+](=O)[O-])n1CCOC(=O)NC(NCc1cccnc1)C(Cl)(Cl)Cl (centres unmarked),1.91
8,COc1cccc(N2CCN(Cc3nc(N)nc(Nc4ccccc4)n3)CC2)c1,-68
9,CCOC(=O)N1CCN(C(=O)C2CCN(S(=O)(=O)c3ccc(F)cc3)CC2)CC1,-19.3
10,CC(=O)O[C@H]1CC[C@@]2(C)[C@@H](CC[C@H]3[C@@H]4CC[C@H](C(C)O)[C@@]4(C)CC(=O)[C@@H]32)C1 (some centres unmarked),-16.9
11,Cn1c(N)c(C(=O)CSc2nnc(C3CC3)n2Cc2ccccc2)c(=O)[nH]c1=O,10.4
12,CC(C)OC(=O)COc1cc(O)c2c(=O)cc(-c3ccccc3)oc2c1,11.3
13,C=C/C(C)=C/C[C@H]1C(=C)CCC2[C@](C)(C(=O)O)CCC[C@@]21C (some centres unmarked),2.32
14,CC(C)c1ccc(NC(=O)C(c2ccc3c(c2)OCO3)N2CCC3(CC2)OCCO3)cc1 (centres unmarked),-14.8
15,Cc1cc([N+](=O)[O-])nn1CCCC(=O)N1CCN(c2ccc(F)cc2)CC1,-53.2
16,O=C(CNC(=O)c1nc[nH]c1C(=O)N1CC[NH2+]CC1)OCc1ccccc1.[Cl-],6.22
17,CCCN1C2CCCC1CC(NC(=O)c1cc(OC)c(OC)c(OC)c1)C2 (centres unmarked),6.39
18,COc1ccc(NC(=O)CSc2nc3ccccc3cc2Cc2ccccc2)cc1,7.89
19,O=C(CSc1ccccc1)NCCc1ccccc1,12

row,SMILES,"hERG current change (%, negative = inhibition) at 10uM [%]"
1,Cc1ccc(N2CCN(c3ccc(C)cc3)C2c2ccncc2)cc1,-2.05
2,Cc1ccc(S(=O)(=O)N2[C@@H](c3ccccc3)C(C(=O)O)=CC[C@H]2c2cccs2)cc1,17.9
3,COc1cc([N+](=O)[O-])ccc1NC(=O)Cc1ccc(C)cc1,21.6
4,O=C(NCCc1ccccc1Cl)C1CCN(S(=O)(=O)c2cccs2)CC1,-34.8
5,N#Cc1c(Cc2cccc3ccccc23)nn(CCO)c1N,2.92
6,O=C1CCC([N+](=O)[O-])C(c2cc(Br)ccc2F)N1 (centres unmarked),18.1
7,O=C(CC1C(=O)NCCN1Cc1c(F)cccc1Cl)NC1CCCCCC1 (centres unmarked),-12.2
8,CCOC(=O)CCNC(C(=O)OCC)c1ccccc1 (centres unmarked),-1.97
9,COc1ccc(C(=O)Nc2ccc(C3(C#N)CCCC3)cc2)cc1,5.73
10,COc1cc2c(cc1OC)C(C(=O)N1CCCCC1)C(c1ccccc1F)N(C)C2=O (centres unmarked),9.92
11,COc1ccc(OC)c(C2C(C(C)=O)=C(O)C(=O)N2Cc2cccnc2)c1 (centres unmarked),-4.66
12,COc1cccc(Nc2ccc(C(=O)O)cc2N)c1,11.3
13,COc1ccc(CC(NC(C)=O)C(=O)NC2CCN(C(=O)c3ccccc3F)CC2)cc1 (centres unmarked),24.4
14,O=c1c2ccccc2oc2nc(-c3ccco3)n(Cc3ccccc3)c(=O)c12,-9.22
15,O=C(NC1CCCC1)C(c1ccsc1)N(C(=O)Cc1cccs1)c1ccccc1 (centres unmarked),-0.856
16,CCOC(=O)Cc1csc(SCC(=O)/C(C#N)=C(\C)N)n1,4.63
17,COc1cccc(C(=O)Nc2ccncc2)c1OC,10
18,Cc1cc(Cl)ccc1OCCCC(=O)Nc1cccc(-n2cnnn2)c1,2.21
